B1: MMAE-IgG1 17 (conjugate)
heavy: QVQLVESGGGLVKPGGSLRLSCAASGFTFSDYYMSWIRQAPGKGLEWVSYISSSGSTIYYADSVKGRFTISRDNAKNSLYLQMNSLRAEDTAVYYCAREVYYYDSSGYYTYYFDYWGQGTLVTVSS[human IgG1 constant region not spelt out]
light: DIQMTQSPSSLSASVGDRVTITCRASQSISSYLNWYQQKPGKAPKLLIYAASSLQSGVPSRFSGSGSGTDFTLTISSLQPEDAATYYCQQYDTFPLTFGGGTKVEIKRTVAAPSVFIFPPSDEQLKSGTASVVCLLNNFYPREAKVQWKVDNALQSGNSQESVTEQDSKDSTYSLSSTLTLSKADYEKHKVYACEVTHQGLSSPVTKSFNRGEC
B2: MMAE-IgG1 3G12 (conjugate)
heavy: QVQLVESGGGLVKPGGSLRLSCAASGFTFSDYYMSWIRQAPGKGLEWVSYISSSGSTIYYADSVKGRFTISRDNAKNSLYLQMNSLRAEDTAVYYCAREVYYYDSSGYYTYYFDYWGQGTLVTVSS[human IgG1 constant region not spelt out]
light: DIQMTQSPSSLSASVGDRVTITCRASQSISSYLNWYQQKPGKAPKLLIYAASSLQSGVPSRFSGSGSGTDFTLTISSLQPEDVAVYYCQQYYTSRITFGQGTKLEIKRTVAAPSVFIFPPSDEQLKSGTASVVCLLNNFYPREAKVQWKVDNALQSGNSQESVTEQDSKDSTYSLSSTLTLSKADYEKHKVYACEVTHQGLSSPVTKSFNRGEC

Columns and labels:
HepG2 cells = assay: ADC cytotoxicity (Cell Titer-Glo cell viability); type: cell-based; conditions: 200 nM
Protocol: (§1) The cell-killing activity of anti-ENPP1 CAR^+ T cells and BiTEs were measured by LDH-Glo cytotoxicity assay kit (Promega, Madison, WI, USA). For the cell-killing activity of anti-ENPP1 CAR^+ T cells, control T cells or CAR^+ T cells as effector cells were incubated with 293T, 293T-ENPP1, and HepG2 target cells (5×10^3 cells/well in 96-well plate) separately at indicated E:T ratio for 24 hours at 37° C. For the cell-killing activity of BiTEs, target cells (1×10^4 cells/well) were mixed with serially diluted BiTEs in 50 μL of growth medium, and […] activated T cells were added at the ET ratio 10:1 and cultured for 24 hours at 37° C. in 5% CO2 humidified atmosphere. Controls for the calculation of percentage cytotoxicity were performed according to the manufacturer's instructions. The calculation of relative % cytotoxicity as follows: relative % cytotoxicity=100×(Experimental LDH release-medium background)/(target and effector maximum LDH release control-medium background). For the cell-killing activity of ADC, 293T, 293T-ENPP1, and HepG2 cells were seeded at 2000 cells/well in 96-well white plate and incubated overnight at 37° C. in 5% CO2. Serial diluted anti-ENPP1 ADC was added and cultured for 4 days at 37° C. in 5% CO2. Images were captured under a 4×objective microscope (Olympus microscope, Westborough, MA, USA). Controls with cells only were used for calculation of percent relative cell viability. At the end of the time point, the Cell Titer-Glo Luminescent cell viability assay kit (Promega) was used to measure the cell viability. The calculation of % Relative cell viability was as follows: % Relative cell viability=100×(Experimental luminescence values-medium Background)/(Control luminescence values-medium Background). For ADCC, the ADCC reporter bioassay complete kit (Promega) was used, the experiment was performed following the manufacturer's instructions. The 293T-ENPP1 cell line was used as target cell.

293T-ENPP1 cells = assay: ADC cytotoxicity (Cell Titer-Glo cell viability); type: cell-based; conditions: 4 days
Protocol: as §1

Row | Molecule | killing effects of free MMAE and ADC compared (HepG2 cells) | cell killing effects (293T-ENPP1 cells)
1 | B1 | comparable | specific cell killing effects
2 | B2 | comparable | specific cell killing effects
